# Source: ChEMBL document CHEMBL5606460, “ASAP - DENV-2 NS2B-NS3 protease fluorescence single point” (2024)
# Among all 2,000 compounds or so, about 110 (5.5%) showed an effect of 50% or more. The list shows a part of the results.
# Target: Genome polyprotein (dengue virus type 2) (UniProt P29990)
# [1] = Thailand/16681/1984, Concentration 25.0 uM, Number of replicates 1.0
smiles,measurement,setting,value
Cc1cc(Cl)c2cccc(NC(=O)[C@@H]3CCCC[C@H]3N)c2n1,inhibition,"Thailand/16681/1984, Concentration 99.9 uM, Number of replicates 2.0, Standard deviation 1.2808103574664134 %",-9.95%
O=Cc1ccc(N2CCC(C(=O)NCC(=O)c3ccc([N+](=O)[O-])cc3)CC2)cc1,inhibition,[1],19.8%
O=C(NCc1c[nH]nn1)c1cc(Cl)ccc1NS(=O)(=O)c1ccc(Oc2ccccc2Cl)cc1,inhibition,"Thailand/16681/1984, Concentration 49.5 uM, Number of replicates 2.0, Standard deviation 0.023138282657692737 %",75.2%
same,inhibition,"Thailand/16681/1984, Concentration 99.01 uM, Number of replicates 2.0, Standard deviation 0.008898717007196123 %",63.2%
same,inhibition,"Thailand/16681/1984, Concentration 198.0 uM, Number of replicates 2.0, Standard deviation 0.06140627240643217 %",36.5%
COc1nscc1-c1ccccc1C(=O)Nc1cnn(C)c1,inhibition,"Thailand/16681/1984, Concentration 49.5 uM, Number of replicates 2.0, Standard deviation 3.4553083491697665 %",-2.15%
same,inhibition,"Thailand/16681/1984, Concentration 99.01 uM, Number of replicates 2.0, Standard deviation 2.823413251353637 %",-1.12%
same,inhibition,"Thailand/16681/1984, Concentration 198.0 uM, Number of replicates 2.0, Standard deviation 2.6036236108826314 %",1.59%
Cc1nn([C@@H](C)c2ccc(F)c(F)c2F)cc1C1CCNCC1,inhibition,"Thailand/16681/1984, Concentration 49.5 uM, Number of replicates 2.0, Standard deviation 2.5332983699082936 %",0.344%
same,inhibition,"Thailand/16681/1984, Concentration 99.01 uM, Number of replicates 2.0, Standard deviation 1.1323289278441409 %",0.372%
same,inhibition,"Thailand/16681/1984, Concentration 198.0 uM, Number of replicates 2.0, Standard deviation 6.845165318926996 %",5.1%
O=C(Nc1cccc(B(O)O)c1)[C@H]1CCN2CCOC[C@@H]12,inhibition,"Thailand/16681/1984, Concentration 49.5 uM, Number of replicates 2.0, Standard deviation 4.614378251208887 %",-7.27%
same,inhibition,"Thailand/16681/1984, Concentration 99.01 uM, Number of replicates 2.0, Standard deviation 4.682429395751547 %",-6.49%
same,inhibition,"Thailand/16681/1984, Concentration 198.0 uM, Number of replicates 2.0, Standard deviation 0.09888712761238215 %",-2.94%
Cc1cc(CO)c2cccc(Cc3ccccc3NC(=O)[C@@H](N)CCN)c2n1,inhibition,"Thailand/16681/1984, Concentration 49.95 uM, Number of replicates 2.0, Standard deviation 0.5289626735368232 %",-3.08%
same,inhibition,"Thailand/16681/1984, Concentration 99.9 uM, Number of replicates 2.0, Standard deviation 0.0906990064710797 %",3.81%
O=C(O)c1cccc(NC(=O)c2ccc3[nH]ccc3c2)c1,inhibition,"Thailand/16681/1984, Concentration 49.5 uM, Number of replicates 2.0, Standard deviation 0.22300032417029267 %",5.57%
same,inhibition,"Thailand/16681/1984, Concentration 99.01 uM, Number of replicates 2.0, Standard deviation 0.15567022791195734 %",15.4%
same,inhibition,"Thailand/16681/1984, Concentration 198.0 uM, Number of replicates 2.0, Standard deviation 0.15662712996054867 %",36.4%
CNC(=O)c1cc(OC)ccc1NS(=O)(=O)c1ccc(Oc2ccccc2Cl)cc1,inhibition,"Thailand/16681/1984, Concentration 49.5 uM, Number of replicates 2.0, Standard deviation 1.018543331825067 %",7.08%
same,inhibition,"Thailand/16681/1984, Concentration 99.01 uM, Number of replicates 2.0, Standard deviation 0.3266212172200244 %",15.5%
same,inhibition,"Thailand/16681/1984, Concentration 198.0 uM, Number of replicates 2.0, Standard deviation 0.9287695329724984 %",21.9%
Cc1cnccc1NC(=O)c1cn(C)c(=O)n(C)c1=O,inhibition,"Thailand/16681/1984, Concentration 49.5 uM, Number of replicates 2.0, Standard deviation 0.3392530070403759 %",-0.508%
same,inhibition,"Thailand/16681/1984, Concentration 99.01 uM, Number of replicates 2.0, Standard deviation 1.12506268076905 %",-0.811%
same,inhibition,"Thailand/16681/1984, Concentration 198.0 uM, Number of replicates 2.0, Standard deviation 0.6438220237419848 %",-0.548%
CN(C[C@H](O)c1ccc(O)cc1)C(=O)C1CCN(c2ccc(C=O)cc2)CC1,inhibition,[1],13.7%
Cn1ccnc1CC(=O)N[C@@]1(C)CCCN(C(=O)c2cc(F)c3[nH]nnc3c2)C1,inhibition,"Thailand/16681/1984, Concentration 49.5 uM, Number of replicates 2.0, Standard deviation 0.29553266916060045 %",-0.611%
same,inhibition,"Thailand/16681/1984, Concentration 99.01 uM, Number of replicates 2.0, Standard deviation 0.07184219034594187 %",0.098%
same,inhibition,"Thailand/16681/1984, Concentration 198.0 uM, Number of replicates 2.0, Standard deviation 0.3570339194901519 %",0.729%
N#C[C@H]1CCCN(Cc2c[nH]c3ccccc23)C1,inhibition,"Thailand/16681/1984, Concentration 49.5 uM, Number of replicates 2.0, Standard deviation 3.56911221584767 %",-1.34%
same,inhibition,"Thailand/16681/1984, Concentration 99.01 uM, Number of replicates 2.0, Standard deviation 2.9055373129077813 %",-0.332%
same,inhibition,"Thailand/16681/1984, Concentration 198.0 uM, Number of replicates 2.0, Standard deviation 3.9015387821284335 %",2%
O=Cc1ccc(N2CCC(C(=O)N3CCN(C(=O)C4CC4)CC3)CC2)cc1,inhibition,[1],12.5%
c1cnc2c(C3CCN(Cc4ccc5[nH]cnc5c4)CC3)c[nH]c2c1,inhibition,"Thailand/16681/1984, Concentration 49.5 uM, Number of replicates 2.0, Standard deviation 3.3849989343370446 %",-4.37%
same,inhibition,"Thailand/16681/1984, Concentration 99.01 uM, Number of replicates 2.0, Standard deviation 2.5993212395132153 %",-4.74%
same,inhibition,"Thailand/16681/1984, Concentration 198.0 uM, Number of replicates 2.0, Standard deviation 2.013738658274251 %",-3.37%
NCc1cccc(NC(=O)[C@H]2CC(F)(F)CN2C(=O)OCc2ccccc2)c1,inhibition,"Thailand/16681/1984, Concentration 49.5 uM, Number of replicates 2.0, Standard deviation 3.8817212285914895 %",-3.13%
same,inhibition,"Thailand/16681/1984, Concentration 99.01 uM, Number of replicates 2.0, Standard deviation 4.048573795130085 %",-2.21%
same,inhibition,"Thailand/16681/1984, Concentration 198.0 uM, Number of replicates 2.0, Standard deviation 4.090127173867097 %",-1.49%
O=C(O)c1cc(Cl)ccc1NS(=O)(=O)c1ccc(Br)cc1,inhibition,"Thailand/16681/1984, Concentration 49.5 uM, Number of replicates 2.0, Standard deviation 1.3795853744617563 %",7.98%
same,inhibition,"Thailand/16681/1984, Concentration 99.01 uM, Number of replicates 2.0, Standard deviation 2.3616490916140984 %",19.6%
same,inhibition,"Thailand/16681/1984, Concentration 198.0 uM, Number of replicates 2.0, Standard deviation 0.9946440456706616 %",67%
O=Cc1ccc(N2CCC(C(=O)N3CCN(C(=O)c4ccccc4Cl)CC3)CC2)cc1,inhibition,[1],12.5%
COc1cc(Cl)c(C)cc1NC(=O)C1CCN(c2ccc(C=O)cc2)CC1,inhibition,[1],13.9%
O=Cc1ccc(N2CCC(C(=O)NC[C@H](c3cccnc3)N3CCOCC3)CC2)cc1,inhibition,[1],14.4%
CNC(=O)c1cc(Cl)ccc1NC(=O)CCNC(=O)c1cccc(Cl)c1,inhibition,"Thailand/16681/1984, Concentration 49.5 uM, Number of replicates 2.0, Standard deviation 0.501524232219261 %",-3.63%
same,inhibition,"Thailand/16681/1984, Concentration 99.01 uM, Number of replicates 2.0, Standard deviation 0.36152285388450167 %",-3.13%
same,inhibition,"Thailand/16681/1984, Concentration 198.0 uM, Number of replicates 2.0, Standard deviation 0.5883606907585598 %",-1.33%
c1cnc(N2CCOCC2)c(CN2CCC(c3c[nH]c4cccnc34)CC2)c1,inhibition,"Thailand/16681/1984, Concentration 49.5 uM, Number of replicates 2.0, Standard deviation 3.227735513404527 %",-2.55%
same,inhibition,"Thailand/16681/1984, Concentration 99.01 uM, Number of replicates 2.0, Standard deviation 3.59276570158156 %",-3.1%
same,inhibition,"Thailand/16681/1984, Concentration 198.0 uM, Number of replicates 2.0, Standard deviation 3.7954179066124296 %",-3.02%
CNC(=O)c1cn(C[C@H]2CCCN2C(=O)c2cccc3ncsc23)nn1,inhibition,"Thailand/16681/1984, Concentration 49.5 uM, Number of replicates 2.0, Standard deviation 0.1358580059513503 %",0.293%
same,inhibition,"Thailand/16681/1984, Concentration 99.01 uM, Number of replicates 2.0, Standard deviation 0.18464096005398162 %",0.707%
same,inhibition,"Thailand/16681/1984, Concentration 198.0 uM, Number of replicates 2.0, Standard deviation 0.18359188284769695 %",0.879%
O=Cc1ccc(N2CCC(C(=O)Nc3ccc(C(F)(F)F)cc3)CC2)cc1,inhibition,[1],13.8%
COc1ccc2c(N)nccc2c1,inhibition,"Thailand/16681/1984, Concentration 49.95 uM, Number of replicates 2.0, Standard deviation 7.078594311778854 %",-6.76%
same,inhibition,"Thailand/16681/1984, Concentration 99.9 uM, Number of replicates 2.0, Standard deviation 6.180300237733915 %",-7.47%
O=Cc1ccc(N2CCC(C(=O)NCCOCc3ccccc3)CC2)cc1,inhibition,[1],12.8%
Cc1cc(CO)c2cccc(CC(=O)N3CC[C@@H](O)C3)c2n1,inhibition,"Thailand/16681/1984, Concentration 49.95 uM, Number of replicates 2.0, Standard deviation 0.5275777280947552 %",-6.57%
same,inhibition,"Thailand/16681/1984, Concentration 99.9 uM, Number of replicates 2.0, Standard deviation 0.031156299118405218 %",-2.69%
O=Cc1ccc(N2CCC(C(=O)Nc3ccc(O)cc3[N+](=O)[O-])CC2)cc1,inhibition,[1],24.5%
